The chains are these.
B1: LINE1-full (parent)
chain: UACGUAGGUGGUUUUCCCCUGAUAGUGCUAAGGGGGCCUGGAAGUUUGGACUGGGCAGAGCUCAACACAGCGUGGCAAAGUGGCUGUGGCUAGACUGCCUCUCUGGAUUCCUCGUCACUCAGCAGGGCAUCUCUGAGAGAAAUGCC

Read counts are not given, so values of variants with three or more changes are uncertain.

In this series the parent is B1. The series can be described thus: self-cleavage, relative activity (ratio to wild type); higher = more cleavage; in vitro, sequencing; the parent is a self-cleaving ribozyme.
As for UACGUAGGUGGUCUUCCCCUGAUAGUGCUAAGGGGGCCUGGAAGUUUGGACUGGGCAGAGCUCAACACAGCGUGGCAAAGUGGCUGUGGCUAGACUGCCUCUCUGGAUUCCUCGUCACUCAGCAGGGCAUCUCUGAGGGAGAUGCC [U13C A138G A141G], the self-cleavage turned out to be 1.28.

Consider UACGUAGGUGGUUUUCCCCUGAUAGUGCUAAGGAGGCCUGGAAGUUUUGACUGGGCAGAGCUCAACACAGCGUGGCAAAGUGGCUGUGGCUAGACUGCCUCUCUGGGUUCCUCGUCACUCAGCAGGGCAUCUCUGAGAGAAAUGCC [G34A G48U A107G], for which the self-cleavage turned out to be 1.01.

As to UACGUAGGUGGUCUUCCCCUGAUAGUGCUAAGGGGGCCUGGGAGUCUGGACUGGGCAGAGCUCAACACAGCGUGGCAAAGUGGCUGUGGCUAGACUGCCUCUCUGGAUUCCUCGUCACUCAGCAGGGCAUCUCUGAGAGAAAUGCC [U13C A42G U46C], the self-cleavage worked out at 2.03.

Consider UACGUAGGUGGCUUUCCCCUGAUAGUGCUAAGGGGGCCUGGAAGUAUGGACUGGGUAGAGCCCAACACAGCGUGGCAAAGUGGCUGUGGCUAGACUGCCUCUCUGGAUUCCUCGUCACUCAGCAGGGCACCUCUGAGAGAAAUGCC [U12C U46A C56U U62C U130C], for which the self-cleavage was 0.05.

With UAUGUAGGUGGUUUUCCCCUGAUACUGCUAAGGGGGCCUGGAUGUUUGGACUGGGCAGAGCUCAACACAGCGUGGCAAAGUAGCUGUGGCUAGACUGCCUCUCUGGAUUCCUCGUCACUCAGCAGGGCAUCUCUGAGAGAAAUGCC [C3U G25C A43U G82A], the self-cleavage came to 0.69.

As to UACGUAGGUGGUUUUCCCCAGAUAGUGCUAAGGGGGCCUGGAAGUUUGGACUGGGCAGAGCUCAACACAGCGUGUCAGGGUGGCUGUGGCUAGACUGCCUCUCUGGAUUCCUCGUCACUCAGCAGGGCAUCUCUGAGAGAAAUGCC [U20A G75U A78G A79G], the self-cleavage came to 0.53.

As for UACGUAGGUGGUUUUCCCCUGAUAGUGCUAAGGGGGCCUGGAAGUUUGGACUGGGCAGAGCUCGACACAGCGAGGCAAAGUGGCAGUGGCUAGACUGCCUCUCUGGAUUCCUCGUCACUCAGCAGGGCAUCUCUGAGAGAAAUGCC [A64G U73A U85A], the self-cleavage is 0.05.

As to UACGUAGGUGGUUUUCCCCCGAUAGUGCUAAGGGGGCCUGGAAGUUUGGACUGGGCAGAGCUCAACACAGCGUGGCAAAGUGGCUGUGGCUAGACAGCCUCUCUGGAUUCCUCGUCACUCAGCAGGGCAUCUCUGAGUGUAAUGCC [U20C U96A A138U A140U], the self-cleavage came to 0.14.

With UACGUAGGUGGUUUUCCCCUGAUAGUGCUAAGGGGGCCUAGAAGUUUGGACUGGGCAGAGCUCAACACAGCGUGGCGAAGUGGCUGUGGCUAGACUGCCUCUCUGGAUUUCUCGUCACUCAGCAGGGCAUCUCUGAGAGGAAUGCC [G40A A77G C110U A140G], the self-cleavage was 1.84.

On to UACGUAGGUGGUUUUCCCCUGAUAGUGCUAAGGGGGCCUGGAAGUUUGGACUGGGCAGAGCACAACACAGCGUGGCAAGGUGGCUGAGGCUAGACUGCCUCUCUGGAUUCCUCGUCACUCAGCAGGGCAUCUCUGAGAGAAAUGCC [U62A A79G U87A], for which the self-cleavage is 0.01.

Take UACGUAGGUGGUUUUCCCCUGGUAGUGCUAAGGGGGCCUGGAAGUUUGGUCUGGGCAGAGCUCAACACUGCGUGGCAAAGUGGCUGUGGCUAGACUGCCUCUCUGGAUUCCUCGUCACUCAGCAGGGCAUCUCUGAGUGAAAUGCC [A22G A50U A69U A138U]: the self-cleavage stood at 0.03.

Consider UACGUAGGUGGCUUUCCCCUGAUAGUGCUAAGGGGGCCUGGAAGUUUGGACUGGGCAGAGCUCAACACAGCGUGGCAAAGUGGCUGUGGCUAGACUGCCUCUCUGGAUUCCUCGUCACUCUGCAGGGCAUCUCUGAGAGAAACGCC [U12C A121U U143C], for which the self-cleavage came to 1.71.

As for UACGUAGGUGGUUUUCCCCUGAUAGUGCUAAGGGGGCCUGGAAGUUUGGACUGGGCAGAGCUCAACACAGCGUGGCAAAGUGGCUGUGGCUAGACUGCCUCUCUGGAUUCCACGUCACUCAGCAGGGCAUCCCUGGGAGAAGUGCC [U112A U132C A136G A142G], the self-cleavage turned out to be 1.65.

UACGUAGGUGGUUUUCCCCUGAUAGUGCUAAUGGGGCCUGGAAGUUAGGACUGGGCAGAGCUCAACACAGCGUGGCAAAGUGGCUGUGGCUAGACUGCCUCUCUGGAUUCCUCGUCACUCAGAAGGGCAUCCCUGAGAGAAAUGCC [G32U U47A C123A U132C]: the self-cleavage is 1.22.

On to UACGUAGGUGGUUUUCCCCUGAUAGUGCCAAAGGGGCCUGGAAGUUUGGACUGGGCAGGGCUCAACACAGCGUGGCAAAGUGGCUGUGGCUGGACUGCCUCUCUGGAUUCCUCGUCACUCAGCAGGGCAUCUCUGAGAGAAAUGCC [U29C G32A A59G A92G], for which the self-cleavage turned out to be 0.35.

As to UACGUAGGUUGUUUUCCCCUGAUAGUGCUAAGGGGGCCUGGAAGUUUGGACUGGGCAGAGCUCAACACAGCGUGGCAAAGUGGCUGUGGCUAGACUGCCUCUCAGGAUUCCCCGUCACUCAGCAGGGCAUCUCUGAGAGAAAUGCC [G10U U104A U112C], the self-cleavage came to 0.24.

As to UACGUAGGUGGCUUUCCCCUGAUAGUGCUAAGGGGGCCUGGAAGUUUGGACUGGGCAGAGCUCAACACAGCGUGGCUAAGUGGCUGUGGCUAGACUGCCUCUCAGGAUUCCUCGUCACUCAGCAGGGCAUCUCUGAGAGAAACGCC [U12C A77U U104A U143C], the self-cleavage was 1.01.

For UACGUAGGUGGUUUCCCCCUGAUAGUGCUAAGGGGGCCUGGAAGUUUGGACUGGGCAGAGCUCAGCACAGCGUGGCAAAGUGGCUGUGGCUAGACUGCCUCUCUGGAUUCCUCGUCACUCAGCAGGGCAUCUCUGAGAGGAAUGCC [U15C A65G A140G], the self-cleavage came out at 0.

Regarding UACGUAGGUGGUUUUCCCCUGAUGGUGCUAAGGGGGCCUGGGAGUUUGGACUGGGCAGAGCUCAACACAGCGUGGCAAAGUGGCUGUGGCUAGACUGCCUCUCUGGAUUCCCCGUCACUCAGCAGGGCAUCUCUGAGAGAAAUGCC [A24G A42G U112C], the self-cleavage came to 1.15.

(Values after the RNAGym collection of RNA variant scans (doi:10.7554/elife.90254).)
